# Source: the supplement of paper PMC9135407
# Several values for one entry are separate records, joined by “and”; a condition that tells them apart may be missing. Equal entries are not always repeated. Structures can show the parent of a compound that is named as a salt. Screen size: about 5,800 compounds; about 620 (11%) showed activity.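 The calls were made as follows: active = score above a cut-off or among the top three wells of a plate; in these data no inactive exceeds 0.85.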 This is a selection; strong and weak results do not stand in their true shares.
# System: primary human hepatic stellate cells (donor 1)
# Test: scaled lipid accumulation score (0 = DMSO-like, 1 = nortriptyline-like); higher = stronger HSC inactivation (lipid re-accumulation), active = hit call of the paper
# Conditions: 48 h
# [1] = library stock concentration: 10 mM
# [2] = library stock concentration: 3.33 mM
# [3] = library stock concentration: 1 mM
# [4] = library stock concentration: 80 uM
# [5] = library stock concentration: 400 uM
# [6] = library stock concentration: 2 mM
structure (smiles),measurement,setting,value
CCCCCCC[N+](CC)(CC)CCCCc1ccc(Cl)cc1 [Clofilium tosylate],scaled lipid accumulation score,,inactive: ≤ 0
CCOC(=O)C1=C[C@@H](OC(CC)CC)[C@H](NC(C)=O)[C@@H](N)C1 [Oseltamivir],scaled lipid accumulation score,library stock concentration: 6.4 mM,inactive: ≤ 0
CCOC(=O)C1=C[C@@H](OC(CC)CC)[C@H](NC(C)=O)[C@@H](N)C1,scaled lipid accumulation score,[1],inactive: 0.074
CCOC(=O)C1=C[C@@H](OC(CC)CC)[C@H](NC(C)=O)[C@@H](N)C1 [Oseltamivir tartrate],scaled lipid accumulation score,[1],inactive: 0.11
C[C@]12CCC(=O)C=C1CC[C@@H]1[C@@H]2[C@@H](O)C[C@@]2(C)[C@H]1CC[C@]2(O)C(=O)CO [Hydrocortisone],scaled lipid accumulation score,[2],inactive: ≤ 0
same,scaled lipid accumulation score,[1],inactive: 0.137 and inactive: 0.029 and inactive: ≤ 0
C[C@]12CCC(=O)C=C1CC[C@@H]1[C@@H]2[C@@H](O)C[C@@]2(C)[C@H]1CC[C@]2(O)C(=O)CO,scaled lipid accumulation score,[1],inactive: 0.065
C[C@]12CCC(=O)C=C1CC[C@@H]1[C@@H]2[C@@H](O)C[C@@]2(C)[C@H]1CC[C@]2(O)C(=O)CO [Hydrocortisone base],scaled lipid accumulation score,,inactive: 0.178
CC(=O)N(O)[C@@H]1c2cc(C#N)ccc2OC(C)(C)[C@H]1O,scaled lipid accumulation score,[1],inactive: ≤ 0
O=C(CCc1ccc(O)cc1)c1c(O)cc(O)cc1O[C@@H]1O[C@H](CO)[C@@H](O)[C@H](O)[C@H]1O [Phlorizin],scaled lipid accumulation score,[2],inactive: ≤ 0
same,scaled lipid accumulation score,[1],inactive: ≤ 0
S=C(S)OC1CC2CC1C1CCCC21 [D-609 potassium],scaled lipid accumulation score,[1],inactive: ≤ 0
CN(N=O)C(=O)NC1C(O)OC(CO)C(O)C1O (stereo not given) [Streptozotocin (STZ)],scaled lipid accumulation score,[2],inactive: ≤ 0
same,scaled lipid accumulation score,[1],inactive: ≤ 0
Oc1ncnc2[nH]ncc12 [Allopurinol],scaled lipid accumulation score,[2],inactive: 0.012
same,scaled lipid accumulation score,[1],inactive: ≤ 0 and inactive: 0.008 and inactive: 0.121
same,scaled lipid accumulation score,library stock concentration: 14.7 mM,inactive: ≤ 0 and inactive: ≤ -0.001
O=[N+]([O-])c1ccc(-c2nc(-c3ccc(F)cc3)c(-c3ccncc3)[nH]2)cc1,scaled lipid accumulation score,[3],inactive: ≤ 0
same,scaled lipid accumulation score,[2],inactive: ≤ 0
same,scaled lipid accumulation score,[1],inactive: ≤ -0.044
Cc1c(OCC(F)(F)F)ccnc1C[S@@+]([O-])c1nc2ccccc2[nH]1 [Dexlansoprazole],scaled lipid accumulation score,[2],inactive: ≤ 0
same,scaled lipid accumulation score,[1],inactive: ≤ -0.001
Cc1c(OCC(F)(F)F)ccnc1C[S@@+]([O-])c1nc2ccccc2[nH]1,scaled lipid accumulation score,[1],inactive: ≤ 0
COc1ccc(CCN(C)CCCN2CCc3cc(OC)c(OC)cc3CC2=O)cc1OC [Zatebradine hydrochloride],scaled lipid accumulation score,[1],inactive: 0.013
Cc1ccc(C(=O)Nc2cccc(C(F)(F)F)c2)cc1Nc1cncc(C(N)=O)c1,scaled lipid accumulation score,[4],inactive: ≤ 0
same,scaled lipid accumulation score,[5],inactive: 0.035
same,scaled lipid accumulation score,[6],inactive: ≤ 0
same,scaled lipid accumulation score,[1],inactive: 0.142
Cc1cc(O)c2c(c1)C(=O)c1cccc(O)c1C2=O [Chrysophanic Acid],scaled lipid accumulation score,[2],inactive: ≤ 0
same,scaled lipid accumulation score,[1],inactive: ≤ 0
NC(=O)c1cn(Cc2c(F)cccc2F)nn1 [Rufinamide],scaled lipid accumulation score,[2],inactive: ≤ 0
same,scaled lipid accumulation score,[1],inactive: ≤ 0 and inactive: 0.003
CC(C(=O)O)c1ccc(-c2ccccc2)c(F)c1 (stereo not given) [Flurbiprofen],scaled lipid accumulation score,,inactive: ≤ 0
same,scaled lipid accumulation score,[2],inactive: ≤ 0
same,scaled lipid accumulation score,[1],inactive: ≤ 0 and inactive: 0.018
CC(C(=O)O)c1ccc(-c2ccccc2)c(F)c1 (stereo not given) [(?)-Flurbiprofen],scaled lipid accumulation score,[3],inactive: ≤ 0
O=C(NC1CCN(CCCCC2(C(=O)NCC(F)(F)F)c3ccccc3-c3ccccc32)CC1)c1ccccc1-c1ccc(C(F)(F)F)cc1 [Lomitapide],scaled lipid accumulation score,[2],active: 1.05
NC(N)=NC(N)=Nc1cccc(Cl)c1 [1-(m-Chlorophenyl)-biguanide hydrochloride],scaled lipid accumulation score,[1],inactive: ≤ -0.063
NC(N)=NC(N)=Nc1cccc(Cl)c1 [m-Chlorophenylbiguanide hydrochloride],scaled lipid accumulation score,[1],inactive: ≤ 0
COc1cc2ncnc(Nc3ccc(NC(=O)c4ccccc4)cc3)c2cc1OC [Aurora Kinase Inhibitor II],scaled lipid accumulation score,[2],inactive: ≤ 0
C[C@H]1O[C@@H](O[C@H]2[C@@H](O)C[C@H](O[C@H]3[C@@H](O)C[C@H](O[C@H]4CC[C@@]5(C)[C@H](CC[C@@H]6[C@@H]5C[C@@H](O)[C@]5(C)[C@@H](C7=CC(=O)OC7)CC[C@]65O)C4)O[C@@H]3C)O[C@@H]2C)C[C@H](O)[C@@H]1O [Digoxin],scaled lipid accumulation score,,active: 1.03
same,scaled lipid accumulation score,[2],active: 1.11
same,scaled lipid accumulation score,[1],active: 0.888
COc1cc([S+](C)[O-])ccc1-c1nc2cccnc2[nH]1 (stereo not given) [Sulmazole],scaled lipid accumulation score,,inactive: ≤ 0
CCCCc1cc2ccccc2c(OCCN(C)C)n1 [Dimethisoquin hydrochloride],scaled lipid accumulation score,,inactive: 0.71
CC(C(=O)O)c1ccc2c(c1)[nH]c1ccc(Cl)cc12 (stereo not given) [Carprofen],scaled lipid accumulation score,[2],inactive: ≤ 0
same,scaled lipid accumulation score,library stock concentration: 7.3 mM,inactive: ≤ 0
same,scaled lipid accumulation score,[1],inactive: ≤ -0.001 and inactive: ≤ 0
C=CCc1cccc(/C=N/NC(=O)CN2CCN(Cc3ccccc3)CC2)c1O,scaled lipid accumulation score,[3],inactive: ≤ 0
same,scaled lipid accumulation score,[2],inactive: ≤ 0
same,scaled lipid accumulation score,[1],inactive: ≤ 0 and inactive: 0.215 and inactive: 0.547
CC(NC(=O)C(Cc1ccccc1)NC(=O)OCc1ccccc1)C(=O)CF (stereo not given),scaled lipid accumulation score,[2],inactive: ≤ -0.009
same,scaled lipid accumulation score,[1],inactive: 0.426
Cc1cccc(C)c1NC(=O)C(C)N (stereo not given) [Tocainide hydrochloride],scaled lipid accumulation score,,inactive: ≤ 0
same,scaled lipid accumulation score,[1],inactive: ≤ -0.07
Cc1cccc(C)c1NC(=O)C(C)N (stereo not given),scaled lipid accumulation score,[1],inactive: ≤ 0
CC(C)N(CCC(=O)c1ccc2ccccc2c1)Cc1ccccc1.Cl,scaled lipid accumulation score,[1],active: 1.1
NCCNc1ncc(C(N)=O)c(Nc2cccc(C(F)(F)F)c2)n1 [Syk Inhibitor II],scaled lipid accumulation score,[2],inactive: 0.589
CO/N=C(\C(=O)N[C@@H]1C(=O)N2C(C(=O)O)=C(CSc3nnnn3C)CS[C@H]12)c1csc(N)n1,scaled lipid accumulation score,[1],inactive: ≤ 0
O=C1c2c(O)cccc2C([C@@H]2O[C@H](CO)[C@@H](O)[C@H](O)[C@H]2O)c2cc(CO)cc(O)c21 (stereo not given in full) [Aloin],scaled lipid accumulation score,[2],inactive: ≤ 0
same,scaled lipid accumulation score,[1],inactive: ≤ 0
CC[N+](CC)(CC)CCOc1ccc(/C=C/c2ccccc2)cc1,scaled lipid accumulation score,[1],inactive: 0.26 and inactive: ≤ -0.006
Cc1ccccc1C(=O)Nc1ccc(C(=O)N2CCCC(O)c3cc(Cl)ccc32)c(C)c1 (stereo not given) [Tolvaptan],scaled lipid accumulation score,[2],inactive: ≤ 0
same,scaled lipid accumulation score,[1],inactive: ≤ 0
CC(C)c1cc2c(c(O)c1O)[C@@]13CCCC(C)(C)[C@@H]1C[C@@H]2OC3=O [Carnosol],scaled lipid accumulation score,[3],inactive: ≤ 0
Nc1nc2[nH]cnc2c(=S)[nH]1 [Thioguanine],scaled lipid accumulation score,[1],inactive: ≤ 0
same,scaled lipid accumulation score,library stock concentration: 12 mM,inactive: ≤ 0
Clc1ccc(C2(c3ccc(-c4cn[nH]c4)cc3)CCNCC2)cc1,scaled lipid accumulation score,[6],active: 0.95
same,scaled lipid accumulation score,[1],active: 1.16
COc1ccccc1N1CCN(CCN2C(=O)c3ccccc3C(C)(C)C2=O)CC1 [ARC 239 dihydrochloride],scaled lipid accumulation score,[1],inactive: 0.088
CC(=O)C1C(=O)C=C(C)OC1=O (stereo not given),scaled lipid accumulation score,[1],inactive: ≤ 0
CCCCC[C@H](O)/C=C/[C@H]1[C@H](O)CC(=O)[C@@H]1CCCCCCC(=O)NCCO [Prostaglandin E1 Ethanolamide],scaled lipid accumulation score,[3],inactive: ≤ 0
CN(C)C(=O)C(CCN1CCC(O)(c2ccc(Cl)cc2)CC1)(c1ccccc1)c1ccccc1 [Loperamide HCl],scaled lipid accumulation score,[2],inactive: 0.485
same,scaled lipid accumulation score,[1],inactive: 0.611
CN(C)C(=O)C(CCN1CCC(O)(c2ccc(Cl)cc2)CC1)(c1ccccc1)c1ccccc1 [Loperamide hydrochloride],scaled lipid accumulation score,,inactive: 0.682
same,scaled lipid accumulation score,[1],inactive: 0.699 and inactive: 0.787
COc1cc(C[C@@H](CO)[C@H](CO)Cc2ccc(O)c(OC)c2)ccc1O,scaled lipid accumulation score,[1],inactive: 0.022
COc1ccc(/C=C/C(=O)Nc2ccccc2C(=O)O)cc1OC [Tranilast],scaled lipid accumulation score,[3],inactive: ≤ 0
same,scaled lipid accumulation score,[2],inactive: ≤ 0
same,scaled lipid accumulation score,library stock concentration: 6.1 mM,inactive: ≤ -0.006 and inactive: ≤ 0
same,scaled lipid accumulation score,[1],inactive: ≤ 0 and inactive: ≤ -0.006
COc1ccc(/C=C/C(=O)Nc2ccccc2C(=O)O)cc1OC,scaled lipid accumulation score,[1],inactive: ≤ 0
CCOC(=O)C1=C(COCCN)NC(C)=C(C(=O)OC)C1c1ccccc1Cl (stereo not given) [Amlodipine besylate],scaled lipid accumulation score,library stock concentration: 3.5 mM,inactive: ≤ 0
CCOC(=O)C1=C(COCCN)NC(C)=C(C(=O)OC)C1c1ccccc1Cl (stereo not given) [Amlodipine],scaled lipid accumulation score,[2],inactive: 0.492
same,scaled lipid accumulation score,library stock concentration: 4.9 mM,inactive: ≤ -0.006
same,scaled lipid accumulation score,[1],inactive: 0.33
Oc1ccc(/C=C/c2cc(O)cc(O)c2)cc1 [Resveratrol],scaled lipid accumulation score,,inactive: 0.202
same,scaled lipid accumulation score,[4],inactive: ≤ 0
same,scaled lipid accumulation score,[5],inactive: ≤ 0
same,scaled lipid accumulation score,[6],inactive: ≤ 0
same,scaled lipid accumulation score,[2],inactive: ≤ 0
same,scaled lipid accumulation score,[1],inactive: ≤ 0 and inactive: 0.15 and inactive: ≤ -0.006
same,scaled lipid accumulation score,library stock concentration: 21.9 mM,inactive: 0.06
Oc1ccc(/C=C/c2cc(O)cc(O)c2)cc1 [trans-Resveratrol],scaled lipid accumulation score,[3],inactive: 0.021
Oc1ccc(/C=C/c2cc(O)cc(O)c2)cc1,scaled lipid accumulation score,[1],inactive: ≤ 0
O=C(Nc1cc(C(F)(F)F)cc(C(F)(F)F)c1)c1cc(Cl)ccc1O,scaled lipid accumulation score,[1],active: 1.1
Cc1nc(N)sc1-c1ccnc(Nc2ccc(N3CCOCC3)cc2)n1,scaled lipid accumulation score,[1],active: 1.07
CCCCC[C@](C)(O)/C=C/[C@@H]1[C@@H](C/C=C\CCCC(=O)OC)[C@@H](O)C[C@H]1O [15(S)-15-methyl Prostaglandin F2.alpha. methyl ester],scaled lipid accumulation score,[3],inactive: ≤ 0
Cc1ccc(-c2ccc3c(ccc4sc5c(c43)NC[C@@H](C)NC5=O)n2)cn1,scaled lipid accumulation score,[1],active: 1.28
CC1(C)CC(=O)c2c(C(F)(F)F)nn(-c3ccc(C(N)=O)c(N[C@H]4CC[C@H](OC(=O)CN)CC4)c3)c2C1,scaled lipid accumulation score,[1],active: 1.05
